# Screen size: about 340,000 compounds; about 6,900 (2%) were called active. Cut-off read from the data, not from the text of the source: active = inhibition above about 30%; inactive = below that, where a call was filed. Only a part is listed here, and it is no random draw. The source gives no active or inactive call for entries shown without one.
# Molecular target: D(2) dopamine receptor (Homo sapiens) (UniProt P14416)
# Assay: HTS Assay for Allosteric Antagonists of the Human D2 Dopamine Receptor: Primary Screen for Antagonists; note: 0% is about no effect
# Conditions: HEK293 TREx D2 cells, calcium flux, dopamine EC80; at 10 µM; stronger effect = higher value
# Method in brief: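 Calcium flux kinetic readout in an inducible HEK293 TREx D2 line plated overnight at 30 C. After 180 s compound exposure, an EC80 dopamine challenge follows with another 180 s kinetic read to detect antagonism.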
# Sequence of UniProt P14416 (P14416 whole entry, looked up): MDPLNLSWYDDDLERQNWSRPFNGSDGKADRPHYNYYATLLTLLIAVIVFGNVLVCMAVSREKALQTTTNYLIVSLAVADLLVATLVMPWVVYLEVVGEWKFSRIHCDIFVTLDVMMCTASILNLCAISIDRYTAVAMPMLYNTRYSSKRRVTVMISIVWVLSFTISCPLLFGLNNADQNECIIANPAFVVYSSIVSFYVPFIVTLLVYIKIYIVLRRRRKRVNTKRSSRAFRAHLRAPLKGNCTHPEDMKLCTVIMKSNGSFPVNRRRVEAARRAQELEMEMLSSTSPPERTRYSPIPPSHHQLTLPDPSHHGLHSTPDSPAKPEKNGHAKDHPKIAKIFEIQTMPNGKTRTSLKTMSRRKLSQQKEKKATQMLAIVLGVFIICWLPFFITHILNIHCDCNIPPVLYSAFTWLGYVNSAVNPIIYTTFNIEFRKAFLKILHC
row,SMILES,inhibition
1,Brc1cccc(-c2nc(-c3ccncc3)no2)c1,active: 40.9%
2,CC(C)NC(=O)/C(C#N)=C\c1ccc(N(C)C)o1,active: 40.3%
3,Cc1ccc(NC(=O)Cn2nc(-c3ccncc3)ccc2=O)cc1Cl,1.29%
4,CCOC(=O)c1ccc2c(c1)N(C(CC)C(=O)Nc1ccccc1OC)C(=O)c1ccccc1S2 (stereo unspecified),11.5%
5,CC(C)CCNC(=O)CSc1nc2ccccc2nc1Cc1ccccc1,-5.17%
6,O=c1oc2cc(O)ccc2cc1-c1nc2c(s1)CCc1ccccc1-2,active: 80.2%
7,COc1ccc(-c2c3c(=O)n(C)c(=O)n(C)c3c3c(-c4cccc(C)c4)nc4ccccc4n23)cc1,15.9%
8,COc1ccc(S(=O)(=O)NCCCO)cc1-c1nnc2c3ccccc3c(C)nn12,10.3%
9,CCOc1ccc(NC(=O)Cn2cc(C(=O)c3ccc(CC)cc3)c(=O)c3cc(OC)c(OC)cc32)cc1,7.27%
10,COc1ccc(NS(=O)(=O)c2ccc3c(c2)CCN3C(=O)CCC(=O)O)cc1Cl,-8.75%
11,COc1ccc2cc3cc(C(=O)N4CCN(c5cccc(Cl)c5)CC4)sc3nc2c1,2.86%
12,CCc1ccc(CCC(=O)Nc2ccc(S(N)(=O)=O)cc2)o1,active: 43.5%
13,CC(C)C(=O)N(Cc1ccccc1)S(=O)(=O)c1ccc2c(c1)oc(=O)n2C,-21%
14,Cc1nc2nncn2c(NCc2ccc(Cl)cc2)c1C,6.98%
15,Cc1ccc(CN(C(=O)COc2ccc(Cl)c(C)c2)C2CCS(=O)(=O)C2)o1 (stereo unspecified),-11.9%
16,Cc1nc2nc(SCC(=O)O)nn2c(C)c1Cc1c(F)cccc1Cl,-10.1%
17,Cc1ccc(Cl)cc1NC(=O)Cn1c(=O)n(CCCS(=O)(=O)C2CCCCC2)c(=O)c2ccccc21,12.2%
18,Cc1csc2nc(COC(=O)c3ccccc3NC(=O)COc3ccccc3F)cc(=O)n12,15.9%
19,CCOc1ccc(C2=NC(c3ccc(OC)cc3)=Nc3ccc(Cl)cc3N2)cc1,-9.5%
20,C=CCC(CC=C)(CNC(=O)C(=O)Nc1cc(C)ccc1OC)c1ccc(OC)c(OC)c1,-8.73%
21,O=C(Cn1cc(S(=O)(=O)N2CCCC2)c(S(=O)(=O)N2CCCC2)c1)Nc1cccc(F)c1,5.71%

row,SMILES,inhibition
1,COc1ccccc1CNC(=O)CN1C(=O)COc2ccc(S(=O)(=O)N3CCC(C)CC3)cc21,8.42%
2,CCOC(=O)c1cccc(NC(=O)C2CCCN(S(=O)(=O)c3ccc4c(c3)oc(=O)n4C)C2)c1 (stereo unspecified),20.9%
3,COc1ccc(NC(=O)/C(C#N)=C/c2cc(C)n(-c3ccc(F)cc3)c2C)cc1,16.2%
4,CCc1ccc(NC(=O)C(C)n2nnc3sc(-c4ccccc4)cc3c2=O)cc1 (stereo unspecified),14.2%
5,c1ccc(CCCN2CCN(c3ccccn3)CC2)cc1,active: 75.5%
6,CCOc1cc(/C=C2\COc3ccccc3C2=O)cc(Br)c1OCC(=O)N(C)C,active: 44.5%
7,CCOC(=O)c1c(-c2ccccc2)csc1NC(=O)c1cc(-c2ccc(Br)cc2)on1,-4.51%
8,Cc1nc2ccc(S(=O)(=O)CCC(=O)Nc3ccc(C)c(C)c3)cc2s1,1.33%
9,COCCCNC(=O)c1sc2nc3n(c(=O)c2c1C)CCC3,3.05%
10,CCOc1ccc(CCNC(=O)CCc2c(C)nc3c(-c4ccccc4)c(C)nn3c2C)cc1OCC,6.63%
11,CCOc1ccc(NC(=O)CC2C(=O)N(c3ccccc3)C(=O)N2C2CCCCC2)cc1 (stereo unspecified),4.66%
12,Cc1cc(N2CCCCC2)nc(N)n1,active: 60.1%
13,Cc1nc(Nc2ccc(Cl)cc2)cc(-c2ccccc2)n1,-1.66%
14,COc1ccc(CNC(=O)c2nc(SC(C)C)ncc2Cl)cc1,-9.85%
15,Cc1cc(NC(=O)Nc2ccc(Cl)cc2)n(-c2ccccc2)n1,active: 40.6%
16,Cc1ccn2c(Nc3ccc4c(c3)OCO4)c(-c3ccc(N(C)C)cc3)nc2c1,-23.4%
17,CCN1CCN(c2oc(-c3ccc(COc4ccc(C)cc4)o3)nc2C#N)CC1,-10.3%
18,COc1ccc2oc(-c3cccc(NC(=O)c4ccc(C#N)cc4F)c3)nc2c1,6.38%
19,CCCCNC(=O)c1ccc2c(c1)NC(=O)C(CS(=O)(=O)Cc1cccc(C)c1)N2 (stereo unspecified),14.6%
20,CC1=C(C(=O)Nc2cccnc2)C(c2cccc(F)c2)n2nc(SCc3ccccc3)nc2N1 (stereo unspecified),-2.95%
21,CC(C)C(=O)N1c2ncnn2C2(CCCCC2)[C@@H]2CCCC[C@@H]21,-9.71%

row,SMILES,inhibition
1,COc1cc(C(=O)Nc2ccc3[nH]c(=O)sc3c2)cc(OC)c1OC,18.4%
2,COc1cccc(NC(=O)Cn2c(=O)n(-c3ccc(Cl)cc3)c(=O)c3oc4ccccc4c32)c1,-8.26%
3,Cc1ccc(S(=O)(=O)N2CCN(Cc3noc(CCC(=O)N4CCCCC4)n3)CC2)c(C)c1,-0.667%
4,COc1ccc(C2CC(=O)N(Cc3ccc(F)cc3)c3ccccc3S2)cc1 (stereo unspecified),2.76%
5,COc1cccc(C(=O)NCC(=O)OCc2cc(=O)n3c(C)csc3n2)c1,19.8%
6,CC(C)Cn1c(=O)c2sccc2n2c(CCCC(=O)NCCc3ccccc3)nnc12,-13.8%
7,CCN1CCN(c2cc3c(cc2F)c(=O)c(S(=O)(=O)c2ccc(OC)cc2)cn3CC)CC1,7.24%
8,Cn1c(C(=O)NCc2ccccc2F)cc2oc3ccccc3c21,-0.263%
9,Cc1c(C(=O)Nc2cccc(C(F)(F)F)c2)sc2nc3n(c(=O)c12)CCCC3,20%
10,O=C(c1ccco1)n1nc(-c2ccccc2)nc1NCc1ccc(F)cc1,4.95%
11,Cc1cc(C)nc(/N=C(\N)Nc2ccc(CC(=O)OC(C)C)cc2)n1,active: 58.6%
12,COc1cccc2sc(N(Cc3cccnc3)C(=O)Cc3ccccc3)nc12,3.63%
13,CC1=C(C(=O)Nc2ccc(C)cc2C)C(C(C)C)n2nc(SCc3ccccc3Cl)nc2N1 (stereo unspecified),0.924%
14,CCN(CC)CCCNC(=O)CSc1c2c(nc3cc(Cl)ccc13)CCCC2,23.5%
15,Cc1ccc(S(=O)(=O)c2cn(CC(=O)Nc3ccc4c(c3)OCO4)c3ccccc3c2=O)cc1,-10.8%
16,Cc1sc2ncn(CC(=O)N3CCN(c4ccc(F)cc4)CC3)c(=O)c2c1S(=O)(=O)N1CCCCC1,-12.8%
17,Cc1ccc(Nc2nc3c(S(=O)(=O)c4ccccc4)nnn3c3ccsc23)c(C)c1,8.4%
18,Cc1cccc2sc(N(CCCN(C)C)C(=O)c3ccc(Cl)s3)nc12,16.1%
19,COc1cc(C2C(C(=O)OCC(C)C)=C(C)N=C3SCCC(=O)N32)ccc1OCc1ccccc1 (stereo unspecified),5.6%
